# Whole data set: some 81,000 sequences, median “one-hybrid fitness for binding parS DNA” near -0.17, cut for the highest 2% near 0.51. This is one part of the list.
# B1: Caulobacter ParB omega fusion; a variant is named by its letters at X, in order, B8GW30 (parent)
# chain: MESVVVGEPGMSEGRRGLGRGLSALLGEVDAAPAQAPGEQLGGSREAPIEILQRNPDQPRRTFREEDLEDLSNSIREKGVLQPILVRPSPDTAGEYQIVAGERAWRAAQRAGLKTVPIMVRELDDLAVLEIGIIENVQRADLNVLEEALSYKVLMEKFERTQENIAQTIGKSXSHVANXMRLLXLPDEVQSYLVSGELTAXHARAIAAAADPVALAKQIIEGGLSVRETEALARKAPNLSAGKSKGGRPPRVKDTDTQALESDLSSVLGLDVSIDHRGSTGTLTITYATLEQLDDLCNRLTRGI
# Variants of: B1
# Experiment: one-hybrid fitness for binding parS DNA (scaled: cognate 1, non-cognate 0); higher = stronger binding
# Conditions: with parS DNA site
# Method in brief: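 Pre- and post-selection plasmids were Illumina-sequenced, three replicate libraries were pooled, and any variant with under 10 reads was removed. The libraries were Caulobacter ParB with four specificity codons randomised, selected in E. coli USO through a HIS3 reporter whose site is 19 bp from the promoter. Cells grew 48 hours at 37°C on M9 without histidine, with 0.1 mM IPTG and 5 mM 3-AT. Fitness is the log change in variant-to-wild-type read ratio, rescaled against cognate and non-cognate.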
row,Variant,one-hybrid fitness for binding parS DNA
1,RVAI,≤ 0.2
2,WFQS,≤ 0.2
3,RYIA,0.496
4,SQSF,≤ 0.2
5,DSRH,≤ 0.2
6,REFR,≤ 0.2
7,RAPV,≤ 0.2
8,HSSN,≤ 0.2
9,TQVY,≤ 0.2
10,ISSN,≤ 0.2
11,QLYS,≤ 0.2
12,AVPG,≤ 0.2
13,PCFK,≤ 0.2
14,RAEH,≤ 0.2
15,KSTF,≤ 0.2
16,HPMR,≤ 0.2
17,ANWN,≤ 0.2
18,LLSH,≤ 0.2
19,NNMV,≤ 0.2
20,KWHR,≤ 0.2
21,VAIS,≤ 0.2
22,GILV,≤ 0.2
23,QMES,≤ 0.2
24,QAER,≤ 0.2
25,IDHM,≤ 0.2

row,Variant,one-hybrid fitness for binding parS DNA
1,VAWQ,≤ 0.2
2,WVCG,≤ 0.2
3,SYCS,≤ 0.2
4,IVPY,≤ 0.2
5,FVVC,≤ 0.2
6,QCRE,≤ 0.2
7,VWPS,≤ 0.2
8,RDHE,≤ 0.2
9,CSAG,≤ 0.2
10,AKYC,≤ 0.2
11,GHSY,≤ 0.2
12,VKMS,≤ 0.2
13,YFTV,≤ 0.2
14,STSH,≤ 0.2
15,QTLL,≤ 0.2
16,FMEG,0.235
17,RRYW,≤ 0.2
18,MHST,≤ 0.2
19,RFMR,≤ 0.2
20,TTYC,≤ 0.2
21,YATL,≤ 0.2
22,YKLG,≤ 0.2
23,RTLM,0.356
24,VNSS,≤ 0.2
25,CYMS,≤ 0.2

row,Variant,one-hybrid fitness for binding parS DNA
1,FRSM,≤ 0.2
2,PSGS,≤ 0.2
3,VEIY,≤ 0.2
4,QPKG,≤ 0.2
5,PASC,≤ 0.2
6,VMKI,≤ 0.2
7,VHAG,≤ 0.2
8,PDAD,≤ 0.2
9,HRWS,0.242
10,HWTY,≤ 0.2
11,FDTV,≤ 0.2
12,MPGS,≤ 0.2
13,KCRG,≤ 0.2
14,VYSC,≤ 0.2
15,HNAD,≤ 0.2
16,QRKQ,≤ 0.2
17,GTLP,≤ 0.2
18,NLSV,≤ 0.2
19,LVIR,≤ 0.2
20,TRTW,≤ 0.2
21,QLDN,≤ 0.2
22,FNGG,≤ 0.2
23,ACCC,≤ 0.2
24,NRRY,≤ 0.2
25,AVFG,≤ 0.2

row,Variant,one-hybrid fitness for binding parS DNA
1,RYRL,≤ 0.2
2,LPQS,≤ 0.2
3,KVCS,≤ 0.2
4,DRIR,≤ 0.2
5,LKSR,≤ 0.2
6,DYSS,≤ 0.2
7,ETMG,≤ 0.2
8,SINC,≤ 0.2
9,LAGN,≤ 0.2
10,GRVC,≤ 0.2
11,SLRR,≤ 0.2
12,NRQR,≤ 0.2
13,MLLY,≤ 0.2
14,GYRC,≤ 0.2
15,GARL,≤ 0.2
16,AKAY,≤ 0.2
17,SQYV,≤ 0.2
18,VTSR,≤ 0.2
19,RHLR,≤ 0.2
20,LRSW,≤ 0.2
21,HRVS,≤ 0.2
22,MTND,≤ 0.2
23,KVPR,≤ 0.2
24,FSQR,≤ 0.2
25,EGRT,≤ 0.2

row,Variant,one-hybrid fitness for binding parS DNA
1,LNQK,≤ 0.2
2,HRAA,≤ 0.2
3,WGTW,≤ 0.2
4,SYKA,≤ 0.2
5,DHWR,≤ 0.2
6,SNTG,≤ 0.2
7,GQYP,≤ 0.2
8,RWTW,≤ 0.2
9,LDGG,≤ 0.2
10,AGAR,≤ 0.2
11,STGC,≤ 0.2
12,NAYI,≤ 0.2
13,WNNG,≤ 0.2
14,KEKR,≤ 0.2
15,ILRR,≤ 0.2
16,LKAD,≤ 0.2
17,VAWT,≤ 0.2
18,PLNQ,≤ 0.2
19,SALG,≤ 0.2
20,TANF,≤ 0.2
21,KKKM,≤ 0.2
22,TIGF,≤ 0.2
23,MRAS,≤ 0.2
24,FGCT,≤ 0.2
25,TPDS,≤ 0.2

row,Variant,one-hybrid fitness for binding parS DNA
1,SVLI,≤ 0.2
2,RKAS,0.832
3,ALPF,≤ 0.2
4,NYAG,≤ 0.2
5,HMFG,≤ 0.2
6,FVLQ,≤ 0.2
7,QVLM,≤ 0.2
8,STAK,≤ 0.2
9,GIAS,≤ 0.2
10,DWRT,≤ 0.2
11,NFIG,≤ 0.2
12,ETVY,≤ 0.2
13,RLAI,≤ 0.2
14,DGLV,≤ 0.2
15,GLYM,≤ 0.2
16,WSLF,≤ 0.2
17,CLHT,≤ 0.2
18,RRFY,0.274
19,KRPV,≤ 0.2
20,CFNT,≤ 0.2
21,CQPG,≤ 0.2
22,RLEP,≤ 0.2
23,SEHV,≤ 0.2
24,VWTA,≤ 0.2
25,RWFY,≤ 0.2

row,Variant,one-hybrid fitness for binding parS DNA
1,AAVI,≤ 0.2
2,YDVS,≤ 0.2
3,DKPK,≤ 0.2
4,IQYC,≤ 0.2
5,WKST,≤ 0.2
6,KSYK,≤ 0.2
7,YVMG,≤ 0.2
8,NESV,≤ 0.2
9,VWSA,≤ 0.2
10,TIIQ,≤ 0.2
11,SQIG,≤ 0.2
12,NFEC,≤ 0.2
13,GRIY,≤ 0.2
14,PMLF,≤ 0.2
15,NRPR,≤ 0.2
16,AKRP,≤ 0.2
17,TSDM,≤ 0.2
18,GTNS,≤ 0.2
19,RTQQ,≤ 0.2
20,GFTS,≤ 0.2
21,SQSG,≤ 0.2
22,ALNW,≤ 0.2
23,WTGG,≤ 0.2
24,RYCS,0.958
25,TEFG,≤ 0.2

row,Variant,one-hybrid fitness for binding parS DNA
1,APRF,≤ 0.2
2,HMTW,≤ 0.2
3,QSYE,≤ 0.2
4,PTRE,≤ 0.2
5,DRST,≤ 0.2
6,YRKA,≤ 0.2
7,RPLP,≤ 0.2
8,TPTV,≤ 0.2
9,VTWC,≤ 0.2
10,WACN,≤ 0.2
11,HVAR,≤ 0.2
12,LDFG,≤ 0.2
13,SRGS,≤ 0.2
14,STET,≤ 0.2
15,ARFE,≤ 0.2
16,YLCR,≤ 0.2
17,HPKG,≤ 0.2
18,LYMV,≤ 0.2
19,HVLG,≤ 0.2
20,PMTR,≤ 0.2
